In all, about 390,000 compounds went through this assay and about 930 (0.24%) were called active. Inconclusive means that the source gave no clear call. Such entries were picked first, then a sample of the others. Calls follow the shape of the dose curve; as a rule, active = well fitted activation curve with a large enough effect; inconclusive = small, poorly fitted or top-dose-only effect; inactive = no such curve, though single readings can be large or run the other way. Where the call is inconclusive, the potency comes from a doubtful curve fit.
test: qHTS for Suppressors of FUS Proteinopathy: Primary screen using FUS-linked yeast assay; also: nearly all actives have a fitted effect of over 55% in size;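 as to growth rescue (activation): plate controls were DMSO vehicle for no effect and reference control for full effect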; settings: S. cerevisiae FUS-expressing, OD600, 24 h; Potency: growth rescue; growth rescue (activation): at 76.6 µM (top of the series)
Procedure, shortened: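 Absorbance at 600 nm, taken 24hr after compound addition, measured rescue of FUS-yeast growth at 30C. Induction used 2% galactose with seeding at OD 0.005. Controls: CP55940 from 92uM final, DMSO only.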
Potency is read from the fitted curve at half-maximal effect; tags tell the direction and shape of the fitted curve.

Row | SMILES | Potency | growth rescue (activation)
1 | O=C(c1ccc(Cl)c(Cl)c1)N1CCC(=O)N(C(COCc2cccc(C(F)(F)F)c2)Cc2ccccc2)CC1 (stereo not drawn) | inconclusive: 25.1 µM [activator, partial curve] | 
2 | CC1(C(=O)N2CC3(CC(c4cccc(NC(=O)CC(c5ccccc5)c5ccccc5)c4)=NO3)C[C@@H]2C(N)=O)CC1 (stereo partly drawn) | inconclusive: 25.1 µM [activator, single point] | 
3 | c1ccc(CSc2nnc(-c3ccncc3)o2)cc1 | inactive | 
4 | Cc1ccccc1Nc1nnc(-c2ccc(C)c(S(=O)(=O)N3CCCCC3)c2)c2ccccc12 | inconclusive: 44.7 µM [activator, single point] | 
5 | COc1ccc(Nc2ncnc3c2nc2n3CCCC2)cc1Cl | inactive | 
6 | COc1nnc(-c2ccc(N3CCCCC3)c(NC(=O)c3ccccc3)c2)c2ccccc12 | inactive | 
7 | CCOC(=O)c1c(C)n(S(=O)(=O)c2ccc(C)cc2)c2ccc(NS(=O)(=O)c3ccc(C)cc3)cc12 | inconclusive: 44.7 µM [activator, single point] | 
8 | Cc1cc(Nc2cccc(C(F)(F)F)c2)nc2ccc(NC(=O)c3cccnc3)cc12 | inconclusive: 28.2 µM [activator, single point] | 
9 | NNC(=O)c1ccc(N2CCc3ccccc32)c([N+](=O)[O-])c1 | inconclusive: 14.1 µM [activator, partial curve] | 
10 | Cn1nnnc1SCC(=O)N1c2ccccc2CCc2ccccc21 |  | inconclusive: 93.2% [activator]
11 | Cc1ccc(NC(=O)C2CC3CCC2C3)c(C)c1 (stereo not drawn) | inactive | 
12 | CC(Oc1ccccc1)C(=O)N1CCC2(CC1)Oc1ccc(F)cc1C(=O)C21CC(c2ccccc2)=NO1 (stereo not drawn) | inconclusive: 28.2 µM [activator, single point] | 
13 | Cc1csc(NC(=O)c2ccc(S(=O)(=O)N(C)c3ccccc3)cc2)n1 | inactive | 
14 | COc1ccc([C@H]2CC(=O)C=C(c3cccc(F)c3OC)C2)cc1 | inactive | 
15 | Cn1nnnc1SCc1nc2scc(-c3ccc(Cl)cc3)c2c(=O)[nH]1 | inconclusive: 14.1 µM [activator, partial curve, poor fit] | 
16 | CCOc1cc(N2CCOCC2)c(OCC)cc1NC(=O)COC(=O)COc1ccc(C#N)cc1 | inconclusive: 8.91 µM [activator, partial curve] | 
17 | O=C(NCC(=O)N1CCN(S(=O)(=O)c2ccccc2F)CC1)c1ccc2c(c1)OCO2 | inactive | 
18 | Cc1ccc(-c2nc3ccc(Cl)cn3c2Cc2ccccc2C(F)(F)F)cc1 | inconclusive: 50.1 µM [activator, single point] | 
19 | COc1ccc(C2CC(=O)Nc3sc(=N)c4c(N)c(C#N)c(N)nc4c32)cc1OC (stereo not drawn) | inconclusive: 15.8 µM [activator, partial curve, poor fit] | 
20 | Fc1ccccc1-c1n[nH]c(=S)n1N=Cc1ccc(-c2ccccc2)cc1 | inactive | 
21 | NCCCC[C@@H]1NC(=O)c2cc([N+](=O)[O-])cc(I)c2SC[C@@H](C(N)=O)NC(=O)[C@H](Cc2ccc(O)cc2)NC1=O | inconclusive: 35.5 µM [activator, single point] | 

Row | SMILES | Potency | growth rescue (activation)
22 | C[C@@H](c1ccccc1)N1C[C@@H](COCc2ccccc2)Oc2cc(N3CCC[C@H]3CO)ccc2S1(=O)=O | inconclusive: 50.1 µM [activator, single point] | 
23 | C=CC[C@H](CC(=O)N[C@H](CO)Cc1ccccc1)C(=O)N[C@@H](COC(=O)[C@H](CC=C)CC(=O)OC(C)(C)C)Cc1c[nH]c2ccccc12 | inconclusive: 22.4 µM [activator, partial curve, poor fit] | 
24 | O=C(O)c1cccnc1SCc1cccc(Cl)c1 | inactive | 
25 | CCC(Oc1ccc(F)cc1)C(=O)N1CCCCCCC1 (stereo not drawn) | inconclusive: 0.891 µM [activator, full curve, poor fit] | 
26 | COc1cccc(C2c3c(oc4cc(C)c(C)cc4c3=O)C(=O)N2CCCN(C)C)c1 (stereo not drawn) | inconclusive: 3.98 µM [activator, full curve] | 
27 | CC(=O)Oc1ccc2ccccc2c1C(NC(=O)Cc1ccccc1)c1ccccc1 (stereo not drawn) | inconclusive: 39.8 µM [activator, partial curve, poor fit] | 
28 | COc1ccc(CN2C(=O)NC3(CCCc4ccccc43)C2=O)cc1F (stereo not drawn) | inactive | 
29 | CCOC(=O)Nc1cccc(C(=O)O)c1 | inactive | 
30 | CCCCCCCCN1C(=O)[C@H](CC(=O)NCCCCc2ccccc2)C[C@@]2(C(=O)OC)CC(C)(C)CC=C12 | inconclusive: 10 µM [activator, full curve, poor fit] | 
31 | O=C(O)Cn1cc(/C=C/[N+](=O)[O-])c2ccccc21 | inactive | 
32 | Cc1ccc(CNc2nc(C)nc3sc4c(c23)CCC4)cc1 | inactive | 
33 | Cc1ccccc1OCC(=O)NNC(=S)NC(=O)c1ccccc1[N+](=O)[O-] | inactive | 
34 | C/C=C/c1ccc(OCCCCN2CCN(CC)CC2)c(OC)c1 | inconclusive: 28.2 µM [activator, single point] | 
35 | COc1ccc(/C=N/NC(=O)c2ccn[nH]2)cc1COc1ccc(F)cc1 | inactive | 
36 | Cc1ccc(NC(=O)C2CCN(C(=O)c3cnn(-c4ccccc4)c3-n3cccc3)CC2)cc1 | inconclusive: 14.1 µM [activator, partial curve, poor fit] | 
37 | CC(C)C(=O)N(c1ccc2oc(=O)sc2c1)S(=O)(=O)c1ccccc1 | inconclusive: 22.4 µM [activator, partial curve, poor fit] | 
38 | COc1ccc2[nH]c3c(c2c1)CCN1C(=O)C(CC(=O)NCC24CC5CC(CC(C5)C2)C4)C[C@H](C(=O)N2CCCCC2)[C@@]31C (stereo partly drawn) | inconclusive: 28.2 µM [activator, single point] | 
39 | CC(=O)Nc1ccc(C(=O)N2CCCCC2c2cc(C(=O)Nc3ccccc3Cl)no2)cc1 (stereo not drawn) | inconclusive: 22.4 µM [activator, partial curve] | 
40 | Cc1nc2c(OCc3cc(Cl)cc(Cl)c3)cccn2c1N(C)C(=O)CCC1CCCC1 | inconclusive: 25.1 µM [activator, single point] | 
41 | O=C1/C(=C\c2ccc(-c3ccccc3[N+](=O)[O-])o2)C(c2ccccc2)=NN1c1ccccc1 | inactive | 
42 | COC(=O)C[C@@H]1CC[C@@H]2[C@H](COc3ccc(NC(=O)c4cccc(OC)c4)cc3C(=O)N2C)O1 | inactive | 

Row | SMILES | Potency | growth rescue (activation)
43 | COc1ccc([C@H]2N[C@]3(CCCN(Cc4ccc(C(F)(F)F)cc4)C3=O)[C@H]3C(=O)N(Cc4ccccc4)C(=O)[C@@H]23)cc1 | inconclusive: 20 µM [activator, partial curve] | 
44 | COCCNC(=O)c1ccc2c(c1)N(Cc1ccc(C(F)(F)F)cc1)C(=O)c1ccccc1S2 | inconclusive: 15.8 µM [activator, partial curve, poor fit] | 
45 | O=C(c1ccccc1F)N1CCN(S(=O)(=O)c2ccc3ccccc3c2)CC1 | inactive | 
46 | Nc1c(C(=O)NCCc2ccccc2)sc2nc(N3CCOCC3)c3c(c12)CCCC3 | inconclusive: 39.8 µM [activator, single point] | 
47 | O=C1C2C3C=CC(C3)C2C(=O)N1/N=C/c1cn(Cc2ccc(F)cc2)c2ccccc12 (stereo not drawn) | inconclusive: 7.94 µM [activator, partial curve, poor fit] | 
48 | Cc1ccc(-c2nc(-c3cccnc3)sc2CC(=O)Nc2ccc3nc(C)sc3c2)cc1 | inconclusive: 0.794 µM [activator, full curve, poor fit] | 
49 | c1nnc2c3c4c(sc3ncn12)CCC4 | inconclusive: 25.1 µM [activator, partial curve, poor fit] | 
50 | O=C(c1ccc(CS(=O)c2ccccc2Cl)o1)N1CCN(c2cccc(C(F)(F)F)c2)CC1 (stereo not drawn) | inconclusive: 50.1 µM [activator, single point] | 
51 | CCOc1ccccc1CNC(=O)CCCN1C(=O)COc2ccc(C)cc21 | inactive | 
52 | Cc1ccc(CNC(=O)CN(C)S(=O)(=O)c2ccc(Br)s2)cc1 | inactive | 
53 | O=C(Cn1cnc2onc(-c3ccc(F)cc3)c2c1=O)N1CCN(c2ccccc2F)CC1 | inconclusive: 39.8 µM [activator, single point] | 
54 | Cc1ccc(-c2ccc(CN3C(CC(C)C)C(=O)N(Cc4cn(CCC5OCCO5)nn4)CCS3(=O)=O)cc2)cc1 (stereo not drawn) | inconclusive: 22.4 µM [activator, single point] | 
55 | CCN(CCCNC(=O)c1cn(CC)c2ccc(S(=O)(=O)N(C)C)cc2c1=O)c1cccc(C)c1 | inactive | 
56 | COc1ccc(C2(C)NC(=O)N(CC(=O)Nc3ccc(C)cc3Br)C2=O)cc1OC (stereo not drawn) | inconclusive: 2.82 µM [activator, full curve, poor fit] | 
57 | CN(C)Cc1ccccc1C1(O)c2ccccc2CSc2ccccc21 (stereo not drawn) | inconclusive: 0.891 µM [activator, full curve, poor fit] | 
58 | CC(C)C[C@H]1CN(CCCC[C@@H]2CNC(=O)C(=O)N2CCc2ccccc2)C(=O)C(=O)N1CCC1CCCCC1 | inconclusive: 20 µM [activator, partial curve] | 
59 | CC(C)C[C@H]1CN([C@@H](Cc2ccc(O)cc2)CN2CCCC2CN2C(=S)NC[C@@H]2Cc2ccccc2)C(=S)N1CC1CCCCC1 (stereo partly drawn) | inconclusive: 20 µM [activator, partial curve] | 
60 | CN(C)Cc1c(C(=O)N/N=C/c2cccc(OCc3c(F)cccc3Cl)c2)nnn1-c1nonc1N | inactive | 
61 | NS(=O)(=O)c1ccc(N=Nc2c(O)c(C(=O)O)cc3ccccc23)cc1 | inconclusive: 25.1 µM [activator, single point] | 
62 | Cc1ccccc1S(=O)(=O)Cc1ccc(C(=O)NCc2ccccc2Cl)o1 | inactive | 
63 | O=C(Cc1c[nH]c2ccccc12)Nc1ccccc1N1CCOCC1 | inconclusive: 35.5 µM [activator, single point] | 

Source: PubChem BioAssay AID1347120 (National Center for Advancing Translational Sciences (NCATS), 2019)
